Reference: PubChem BioAssay AID2451 (National Center for Advancing Translational Sciences (NCATS), 2010)
The campaign covered roughly 290,000 compounds. About 2,100 (0.72%) were called active. The inconclusive results got no clear call from the source; some entries with a clear call stand among them for comparison. Calls follow the shape of the dose curve; as a rule, active = well fitted inhibition curve with a large enough effect; inconclusive = small, poorly fitted or top-dose-only effect, or effect the other way; inactive = flat fitted curve, though single readings scatter. Potencies beside an inconclusive call are fits to weak or partial responses and may not hold up.

Target: Fructose-bisphosphate aldolase (Giardia intestinalis (strain ATCC 50803 / WB clone C6)) (UniProt A8B2U2)
Sequence of UniProt A8B2U2 (A8B2U2 whole entry, looked up): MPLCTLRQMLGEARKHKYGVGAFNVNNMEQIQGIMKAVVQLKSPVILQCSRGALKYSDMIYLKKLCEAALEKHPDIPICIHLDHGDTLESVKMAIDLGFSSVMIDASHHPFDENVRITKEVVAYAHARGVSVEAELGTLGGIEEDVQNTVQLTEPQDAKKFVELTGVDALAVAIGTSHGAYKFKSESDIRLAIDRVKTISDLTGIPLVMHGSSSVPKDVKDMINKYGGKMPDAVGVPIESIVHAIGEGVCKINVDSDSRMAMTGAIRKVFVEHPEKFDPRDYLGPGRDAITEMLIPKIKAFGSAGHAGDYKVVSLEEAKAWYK
Assay: qHTS Assay for Inhibitors of Fructose-1,6-bisphosphate Aldolase from Giardia Lamblia; also: nearly all actives have a fitted effect of over 55% in size
Details: purified Giardia FBPA; series mostly up to 59.6 µM
Procedure, shortened: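 40 nM FBPA preincubated 10 min at RT with compound (up to 57.5 uM final), then substrate plus GAPDH/TPI/NAD/arsenate coupling and diaphorase/resazurin added. Fluorescence read after 20 min at RT, 525/598 nm.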
Potency is read from the fitted curve at half-maximal effect; tags tell the direction and shape of the fitted curve.

SMILES | Potency
C/C(=N\Nc1ccc(C(=O)O)cc1)c1ccc(Br)cc1 | inactive
O=C(CSCc1ccc(Cl)cc1)N/N=C/c1ccc(Cl)cc1Cl | inactive
O=S(=O)(c1ccccc1)N1CCN=C1SCc1cccc(Cl)c1 | inconclusive: 44.6 µM [inhibitor, partial curve]
COc1ccc(OC)c(C(=O)c2c(C)oc3cc([N+](=O)[O-])c(O)c([N+](=O)[O-])c23)c1 | inconclusive: 15.8 µM [inhibitor, partial curve]
CCCOc1ccc(C2Nc3cccc4cccc(c34)N2)cc1 | inactive
C=CCSc1nc2ccccc2n1S(=O)(=O)c1ccc(C)cc1 | inconclusive: 15.8 µM [inhibitor, partial curve]
COc1ccc(-c2cn3nc4c(nc3n2)CCCC4)cc1 | inactive
O=c1[nH]c(=O)n(Cc2ccco2)c2c1C(C(F)(F)F)(C(F)(F)F)N=C(CCc1ccccc1)N2 | inactive
Cc1ccc(N(CC(=O)N/N=C/c2cccc(Br)c2)S(C)(=O)=O)cc1 | inconclusive: 14.1 µM [inhibitor, partial curve]
CCN1CCCC1CN(Cc1cc2ccc(C)cc2[nH]c1=O)C(=S)Nc1ccc(OC)cc1OC (configuration not stated) | inconclusive: 15.8 µM [inhibitor, single point]
C=CCN(CC=C)C(=S)Nc1ccc2nsnc2c1 | active: 9.98 µM
C/C(=N/NC(=O)c1ccn(C)n1)c1ccncc1 | inconclusive: 44.6 µM [inhibitor, single point]
COC(=O)C(=Nc1ccccc1)/C(C(=O)C(=O)N(C)c1ccccc1)=C(\O)c1ccc(Cl)cc1 | inconclusive: 19.9 µM [inhibitor, single point]
Cc1cccc(C)c1Nc1oc(-c2ccccc2)nc1-c1cccc2ccccc12 | inactive
C=CCn1c(O)c(CN2CCN(Cc3ccccc3)CC2)c(C)c(C#N)c1=O | inconclusive: 7.92 µM [inhibitor, partial curve]
COc1ccc2c(c1OC)C(=O)N(c1ccc(C)cc1)C2 | inactive
CC1=C(C)C(=O)C(N2CCOCC2)=CC1=O | active: 1.41 µM
CC(=O)Nc1ccc(C2Nc3cc(C)c(C)cc3NC3=C2C(=O)CC(C)(C)C3)cc1 (configuration not stated) | inactive
CCCCNC(=O)c1ccc2nc(-c3ccco3)c(-c3ccco3)nc2c1 | inconclusive: 3.54 µM [inhibitor, full curve]
O=c1cnc2cnc(N3CCOCC3)nc2n1Cc1cccs1 | inconclusive: 31.5 µM [activator, single point]
CCc1cc2c(=O)n(-c3ccccc3)cnc2s1 | inactive
CC1=C(CCC(=O)O)c2cc3nc(cc4[nH]c(cc5[nH]c(cc1n2)c(C)c5C(C)O)c(C)c4C(C)O)C(C)=C3CCC(=O)O (configuration not stated) | inconclusive: 15.8 µM [inhibitor, single point]
